Data reported in PMC4336329 (PLoS ONE, 2015).
The whole screen tested about 310,000 compounds, of which about 14,000 (4.5%) showed an effect of 50% or more. Effects have a minus sign here. The list shows a part of the results.

The compounds below were run against human ether-à-go-go-related gene (hERG) potassium channel (human, UniProt Q12809) (assay: primary screen, population patch clamp on CHO cells stably expressing hERG).
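Further: peak tail current of the secondary pulse compared with the same well before compound.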

human ether-à-go-go-related gene (hERG) potassium channel, sequence (Q12809 whole entry, looked up): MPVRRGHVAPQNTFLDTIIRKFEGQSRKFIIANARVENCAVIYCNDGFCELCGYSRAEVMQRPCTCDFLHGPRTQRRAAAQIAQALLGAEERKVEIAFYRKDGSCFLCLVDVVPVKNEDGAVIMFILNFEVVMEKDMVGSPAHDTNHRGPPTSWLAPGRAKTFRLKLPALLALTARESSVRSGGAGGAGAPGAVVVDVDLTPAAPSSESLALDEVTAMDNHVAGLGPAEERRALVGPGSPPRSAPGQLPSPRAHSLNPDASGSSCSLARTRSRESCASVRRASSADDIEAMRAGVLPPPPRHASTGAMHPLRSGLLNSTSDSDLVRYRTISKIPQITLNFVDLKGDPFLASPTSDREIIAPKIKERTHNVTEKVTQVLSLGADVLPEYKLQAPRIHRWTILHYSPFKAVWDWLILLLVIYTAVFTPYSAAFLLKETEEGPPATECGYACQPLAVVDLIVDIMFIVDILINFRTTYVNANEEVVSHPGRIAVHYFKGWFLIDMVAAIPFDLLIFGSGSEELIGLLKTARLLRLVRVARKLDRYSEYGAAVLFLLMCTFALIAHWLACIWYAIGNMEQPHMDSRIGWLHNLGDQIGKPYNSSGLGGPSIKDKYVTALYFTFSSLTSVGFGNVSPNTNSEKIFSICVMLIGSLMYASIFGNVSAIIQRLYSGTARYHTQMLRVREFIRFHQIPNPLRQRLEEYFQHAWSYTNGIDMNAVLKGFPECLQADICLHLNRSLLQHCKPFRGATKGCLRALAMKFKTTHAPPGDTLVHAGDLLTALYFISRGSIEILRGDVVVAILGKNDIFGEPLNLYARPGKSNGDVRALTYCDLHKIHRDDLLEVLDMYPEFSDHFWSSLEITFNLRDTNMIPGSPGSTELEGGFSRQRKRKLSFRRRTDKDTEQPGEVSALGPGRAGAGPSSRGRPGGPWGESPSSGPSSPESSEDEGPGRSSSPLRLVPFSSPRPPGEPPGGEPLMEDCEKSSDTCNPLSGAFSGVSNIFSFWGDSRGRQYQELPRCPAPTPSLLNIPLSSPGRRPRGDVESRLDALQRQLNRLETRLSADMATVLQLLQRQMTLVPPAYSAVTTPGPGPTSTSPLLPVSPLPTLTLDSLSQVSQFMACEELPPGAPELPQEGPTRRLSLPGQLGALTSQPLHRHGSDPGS

SMILES	hERG current change (%, negative = inhibition) at 10uM [%]
CCn1c(=O)n(CC)c2cc(N3CCCC3)c(NC(=O)c3cc(Br)ccc3OC)cc21	7.35
CC1(C)CC(=O)C2=C(C1)N(CCN1CCOCC1)C1=C(C(=O)CC(C)(C)C1)C2c1ccc(Cl)cc1	-34.1
CCN(Cc1ccccc1)C(=O)C1CCN(S(=O)(=O)c2ccc3c(c2)OCCO3)CC1	-6.73
Cn1c2c(c(=O)n(C)c1=O)CN(CCCN1CCOCC1)CN2	-1.29
CCCCOc1ccc(Cc2cnc(N)nc2N)cc1	-0.891
CCOC(=O)c1oc2ccccc2c1NC(=O)COc1ccc(F)cc1	14
CC(=O)c1cccc(NC(=O)CCn2c(=O)oc3ccccc32)c1	-6.39
Cn1c(SCC(=O)NCc2ccc3c(c2)OCO3)nnc1-c1c[nH]c2ccccc12	-27.8
CCN(CC)CC#CCC(OC)(c1ccccc1)c1ccccc1.Cl	-32.5
Cc1ccc2nc(SCC(=O)Nc3ncccn3)[nH]c2c1	22.3
Cc1cccc(NC(=O)CSc2nnc([C@@H]3CCCN3C(=O)OC(C)(C)C)o2)c1C	10.7
O=C1CC(C(=O)Nc2ccc(C(=O)N3CCOCC3)cc2)C2(CCCCC2)O1 (stereo not drawn)	8.26
O=S(=O)(Nc1nc(-c2sccc2Cl)cs1)c1cc(Cl)ccc1Cl	13.8
COc1ccc(CCN(C)c2ncnc3sccc23)cc1OC	7.49
COc1ccc(CC(=O)Nc2cc(S(=O)(=O)N3CCCCC3)ccc2C)cc1OC	5.16
O=C(NCC1CCCO1)c1cccc(NS(=O)(=O)c2ccc(Br)cc2)c1 (stereo not drawn)	-16.9
N=C1C(c2ccccc2)=C(O)CN1c1cccc2ccccc12	-1.51
COC(=O)c1c(NC(=O)c2ccc(N(C)S(=O)(=O)c3ccc(C)cc3)cc2)sc2c1CCCC2	6.33
CC(=O)Nc1cccc(NC(=O)c2cccc(S(=O)(=O)N3CCN(Cc4ccccc4)CC3)c2)c1	0.275
Cc1nc(NS(=O)(=O)c2ccc(Cl)s2)c2c3c(sc2n1)CCCC3	-28.7
Cc1ccc(-n2ncc3c(=O)n(CC(=O)OCc4ccccc4)cnc32)cc1	-11.2
Cc1cc(C)c(NC(=O)CN2C(=O)CC(C)S(=O)(=O)c3ccccc32)c(C)c1 (stereo not drawn)	20.1
CCN(Cc1nc2cc(OC)c(OC)cc2c(=O)[nH]1)C(=O)c1ccc(S(=O)(=O)N(C)C)cc1	4.07
CC(C)NC(=O)c1ccc(COCC(F)(F)F)cc1	18.9
CN(C)S(=O)(=O)c1ccc(C(=O)OCc2ccc(C#N)cc2)cc1	-11.1
CN(c1cccc(NC(=O)CN(c2ccc(C34CC5CC(CC(C5)C3)C4)cc2)S(C)(=O)=O)c1)S(C)(=O)=O	13
COc1ccccc1CNC(=O)Cn1c(=O)oc2cc(S(=O)(=O)N3CCCC3)ccc21	5.73

SMILES	hERG current change (%, negative = inhibition) at 10uM [%]
c1ccc(-c2nnc(CSc3nc4ccccc4[nH]3)o2)cc1	-34.8
CC1CCN(S(=O)(=O)c2ccc(NC(=O)c3ccncc3)cc2)CC1	-27.1
CCCOP(=O)(c1ccc(N(C)C)cc1)C(O)c1ccncc1 (stereo not drawn)	9.86
O=C(COc1ccc(Cl)cc1Cl)N1CCN(C(=O)c2ccco2)CC1	20.6
CC(=O)c1c(C)[nH]c(C(=O)OC(C)C(=O)Nc2cc(S(=O)(=O)N3CCCCC3)ccc2Cl)c1C (stereo not drawn)	0.883
CCOc1cc2c(cc1OCC)-n1cccc1C(c1c(O)cccc1OC)NC2.Cl (stereo not drawn)	-28
CC(C)CN(C(=O)COC(=O)C12CC3CC(CC(Cl)(C3)C1)C2)c1c(N)n(Cc2ccccc2)c(=O)[nH]c1=O	17.8
CC(=O)O.CC1=CC(C)C(/C=N/N=C(N)N)C(C)C1 (stereo not drawn)	-18.4
CCCCn1c(SCC(=O)Nc2cc(C)on2)nnc1-c1cccs1	-48.3
COc1ccc(S(=O)(=O)NC(C)C(=O)N2CCCCCC2)cc1 (stereo not drawn)	0.735
Cc1ccc(SCc2ccc(C(=O)Nc3cc([N+](=O)[O-])ccc3C)cc2)cc1	13.3
COCCn1c(SCC(=O)Nc2ccccc2)nc2c(oc3ccccc32)c1=O	0.528
O=C(O)C1CCCCC1C(=O)Nc1cccc(Cl)c1Cl (stereo not drawn)	19.5
COc1cc(NC(=O)c2ccc(N3CC4CC(C3)c3cccc(=O)n3C4)c(NC(=O)c3ccncc3)c2)cc(OC)c1OC (stereo not drawn)	6.62
Cc1ccccc1NC(=O)Nc1ccccn1	19.6
Cc1cc2cc3c(cc2nc1SCC(=O)N1c2ccccc2CC1C)OCO3 (stereo not drawn)	3.48
O=C(OCc1cc2ccccc2[nH]c1=O)c1ccccn1	9.06
CCOC(=O)C1(CCc2ccccc2)CCN(C2CCSCC2)CC1	-76.3
CCC(COC)Oc1cc(NCc2ccccc2)c2ncn(C(C)C)c2c1 (stereo not drawn)	-6.65
CC(C)CNC(=O)C(=O)NCC1CCCN1S(=O)(=O)c1cccs1 (stereo not drawn)	-3.06
Cc1ccc(NS(=O)(=O)c2c(C)ccc3nsnc23)c([N+](=O)[O-])c1	9.09
Cc1occc1C(=O)N1CCN(Cc2ccccc2)CC1	-1.16
Nc1ccc(S(=O)C(F)(F)F)cc1 (stereo not drawn)	7.17
COc1ccc2c(c1OC)C(=O)N1C2SC[C@H]1C(=O)NCCC(C)C (stereo partly drawn)	12.9
Cc1ccc(N(C=NC#N)CC(=O)N2CCN(c3ccccc3)CC2)cc1	-49.3
COc1ccc(-c2ccc3oc(-c4ccsc4)cc3c2)cc1	28.4
O=C(CCC(=O)N1CCCC1)Nc1ccc([N+](=O)[O-])cc1	-1.25
